# Measurements published in article PMC6919601, “Identification of Plasmodium dipeptidyl aminopeptidase allosteric inhibitors by high throughput screening” (PLoS ONE, 2019).
# Screen size: about 110,000 compounds; about 230 (0.21%) showed an effect of 50% or more. The list shows a part of the results.
# Target: DPAP1 (Plasmodium falciparum, UniProt Q8IIJ9)
# Assay: primary screen, percent inhibition; read by cleavage of a fluorogenic dipeptide substrate; higher = more effect of the substance
# Set-up: species or system P. falciparum D10 trophozoite lysates; single well
# 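Also: 30 min substrate incubation versus DMSO and 10 µM JCP410 controls.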
# Chain of DPAP1 (Q8IIJ9 whole entry, looked up): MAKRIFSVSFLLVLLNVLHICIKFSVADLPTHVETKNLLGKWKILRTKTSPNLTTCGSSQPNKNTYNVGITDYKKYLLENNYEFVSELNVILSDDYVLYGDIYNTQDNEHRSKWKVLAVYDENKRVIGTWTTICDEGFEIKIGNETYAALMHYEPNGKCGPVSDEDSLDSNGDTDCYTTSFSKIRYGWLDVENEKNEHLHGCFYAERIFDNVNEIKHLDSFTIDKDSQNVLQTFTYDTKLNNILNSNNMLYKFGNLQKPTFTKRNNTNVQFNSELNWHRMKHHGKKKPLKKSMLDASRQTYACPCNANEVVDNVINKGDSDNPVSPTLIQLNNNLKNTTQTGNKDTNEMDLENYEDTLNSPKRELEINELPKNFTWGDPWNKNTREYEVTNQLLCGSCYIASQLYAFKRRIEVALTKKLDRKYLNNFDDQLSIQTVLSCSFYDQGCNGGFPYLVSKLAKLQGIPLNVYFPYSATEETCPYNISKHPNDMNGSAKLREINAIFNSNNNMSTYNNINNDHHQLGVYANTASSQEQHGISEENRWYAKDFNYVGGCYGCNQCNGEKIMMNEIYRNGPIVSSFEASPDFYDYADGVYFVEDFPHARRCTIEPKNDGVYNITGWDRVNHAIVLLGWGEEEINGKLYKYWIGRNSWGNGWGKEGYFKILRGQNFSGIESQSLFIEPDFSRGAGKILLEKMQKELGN
row,SMILES,% Inhibition @ 10 uM [%]
1,O=C(NC1CCCCCC1)c1ccccc1[N+](=O)[O-],-6.35
2,COc1ccc(Cl)cc1N(CC(=O)N1CCCCCC1)S(=O)(=O)c1ccc(C)cc1,-5.67
3,CCC(=O)C1=C(NCCC(=O)O)CC(c2ccccc2)CC1=O (centres unmarked),-6.28
4,CN(CC(=O)NC1CCCCC1)S(=O)(=O)c1cccc2cccnc12,0.981
5,CCn1c(C)cc(/C=C2\NC(=O)N(Cc3ccccc3)C2=O)c1C,-3.04
6,CCOC(=O)c1cc(S(=O)(=O)NCCc2ccccc2)cn1C,0.655
7,CC(C)(C)C(/C=C\c1ccc(Cl)cc1Cl)n1nnnc1C1(N2CCOCC2)CCCC1 (centres unmarked),-3.92
8,Cc1ccc(Cn2c(SCC(=O)NCC3CCCO3)nc3ccsc3c2=O)cc1 (centres unmarked),0.4
9,COc1cc(/C=C2\N=C(SC)SC2=O)cc(OC)c1OC,-0.85
10,COc1cc(C2C(C#N)=C(N)OC3=C2C(=O)CC(C)(C)C3)ccc1OCC(=O)Nc1ccc(C)cc1 (centres unmarked),7.69
11,CCCn1c2ccccc2n2cc(-c3ccc(-c4ccccc4)cc3)nc12,9.37
12,COc1cccc2cc(C(C)=O)c(=O)oc12,-4.04
13,COc1ccc(N)cc1NC(=O)c1ccc(Cl)cc1Cl,5.24
14,Cc1cccc(CN2CCN(CCO)CC2)c1,-3.04
15,CCOc1ccccc1/C=C(\C#N)c1nc(-c2cc3ccccc3oc2=O)cs1,-5.94
16,COc1cc(C2CC(=O)NC3=C2C(=O)CC(C)(C)C3)cc(Cl)c1O (centres unmarked),-4.53
17,CC(=O)C(CCc1ccccc1)NC(=O)[C@H](CC(C)C)NC(=O)OCc1ccccc1 (some centres unmarked),-7.36
18,CN1CCCN(Cc2ccccc2Cl)CC1,1.48
19,CC1CCC(NC(=O)C2CCN(C(=O)c3sccc3-n3cccc3)CC2)CC1 (centres unmarked),1.72
20,C=CCn1c(SCC(=O)N2CCCCCC2)nc2scc(-c3ccc(C)o3)c2c1=O,0.722
21,COC(=O)c1ccc(/C=c2\sc3nc(=O)c(Cc4ccccc4)nn3c2=O)cc1,-5.62
22,Cc1ccccc1-n1c(SCC(=O)NCc2ccccc2)nc2nncc-2c1O,2.06
23,N#CC1=C(N)Oc2[nH]nc(C34CC5CC(CC(C5)C3)C4)c2C1c1ccc(O)cc1 (centres unmarked),1.43
24,Cc1ccc(S(=O)(=O)N(CC(=O)N2CCN(Cc3ccccc3)CC2)c2ccccc2)cc1,3.74
25,CC(C)COc1ccc(/C=C2\SC(=O)N(CC(=O)N3CCOCC3)C2=O)cc1,-17

row,SMILES,% Inhibition @ 10 uM [%]
1,CCOc1cc(/C=C2/SC(=O)N(CC(=O)Nc3cccc(C)c3)C2=O)ccc1O,-3.12
2,CCOC(=O)c1sc2c(c1NC(=O)c1ccccc1C)CCCC2,-5.36
3,CCN1CCCC1CNC(=O)c1nnc(Cc2cc(OC)c(OC)c(OC)c2)o1 (centres unmarked),3
4,CCN1/C(=C2/SC(=S)N(C3CCCCC3)C2=O)C=Cc2ccccc21,-1.77
5,COc1cc(-c2[nH]nc3c2C(c2cccc(Br)c2)C(C#N)=C(N)O3)cc(OC)c1OC (centres unmarked),-2.89
6,O=C(N[C@@H](CC1CCCCC1)C(=O)N[C@@H](CCc1ccccc1)C(=O)c1nc2ccccc2o1)c1c[nH]cn1,-3.49
7,CC1CN(C(=O)c2ccc(COc3ccccc3Cl)cc2)CC(C)O1 (centres unmarked),-2.74
8,CCc1cc2c(cc3c(=O)n(CCCC(=O)NCc4ccc(OC(C)C)cc4)ncn32)s1,4.84
9,CC(C)c1ccc(NC(=O)c2cccs2)cc1,3.54
10,Oc1cc(Nc2cccc(Cl)c2)nc(O)n1,0.162
11,O=C(O)c1ccc(NC(=O)c2csc3c2CCCC3)cc1,1.34
12,CCN(CC)CCOc1ccc(Cl)c(C)c1,-0.711
13,FC(F)(F)C1=CC(c2cccs2)=NCCN1,-3.92
14,Cc1ccc(CCNC(=O)c2nnc(-c3ccc4c(c3)OCO4)o2)cc1,-2.88
15,COc1cc(C(=O)N/C(=C/c2ccc(F)cc2)C(=O)NCCC(=O)O)cc(OC)c1OC,20.8
16,CCN1CCN(C(c2cccs2)C(C)NC(=O)C(=O)NCc2cccnc2)CC1 (centres unmarked),3.96
17,COCCCNC(=O)c1ccc(CS(=O)Cc2ccc(Cl)cc2)o1 (centres unmarked),7.13
18,O=C(CCN1CCCCC1)NCC1OCCc2ccccc21 (centres unmarked),-1.06
19,CCCCC(C(=O)Nc1ccc(F)cc1)N1C(=O)c2ccccc2C1=O (centres unmarked),1.82
20,O=C(COCc1cc(-c2ccc(F)cc2)on1)NCCCn1ccnc1,-5.84
21,CC(C)Oc1ccc(-c2[nH]c3c(C#N)cnn3c2NC2CCCC2)cc1,9.74
22,CCC(C)N1C(=O)CN(C2CCC(C)CC2)C(=O)C1c1ccc(C)cc1 (centres unmarked),4.47
23,CC1=C(C(=O)Nc2ccc(F)cc2)C(c2cccc(Cl)c2Cl)NC(S)=N1 (centres unmarked),-3.63
24,COc1ccc(-c2cc(C(F)(F)F)n3nc(C(=O)NCc4ccco4)cc3n2)cc1OC,1.12
25,CC(C)c1ccc(CNC(=O)c2ccc3ccccc3n2)cc1,-1.55

row,SMILES,% Inhibition @ 10 uM [%]
1,CCCc1n(CC(O)COc2ccc(OC)cc2)c2ccccc2[n+]1C (centres unmarked),-7.9
2,CC(=O)Nc1ccc(C2=NN(c3ccccc3)C(c3ccccc3)C2)cc1 (centres unmarked),5.48
3,O=C(O)C1CCN(C2CC(=O)N(c3ccc(Cl)cc3)C2=O)CC1 (centres unmarked),5.09
4,Cc1ccc(-c2nnc(C3CCN(S(=O)(=O)c4ccc5[nH]c(-c6ccccc6)nc5c4)CC3)o2)cc1,12.7
5,OCC1CCCCN1CC(O)COc1ccc(C23CC4CC(CC(C4)C2)C3)cc1 (centres unmarked),-1.05
6,O=C(Nc1c2c(nn1-c1cccc(Cl)c1)CS(=O)(=O)C2)C12CC3CC(CC(C3)C1)C2,9.36
7,COc1ccc(C(=O)c2sc3nc(C)c(Cl)c(C)c3c2N)cc1,-0.736
8,O=C(CN1CCCC1)N1c2ccccc2Sc2ccc(Cl)cc21,0.132
9,O=C1c2[nH]nc(-c3ccccc3O)c2C(c2ccccc2F)N1CCCO (centres unmarked),-3.12
10,CCCCN(C)C(=O)C1CCCN(c2nnc(C)c3c(C)n(-c4ccccc4)nc23)C1 (centres unmarked),3.91
11,COc1cccc(C(=O)Nc2ccc(NC(=O)c3ccco3)cc2)c1,3.25
12,O=C(NCCCO)C(=O)NCc1ccncc1,-13.4
13,O=C(c1oc(=O)c2ccccc2c1-c1ccccc1)N1CCCN(Cc2ccc(F)cc2)C1,-4.74
14,CN(C)CCNC(=O)C12CC3CC(C)(CC(C)(C3)C1)C2,1.33
15,CCOc1cc(CNC(=O)c2cnc(SC)nc2-c2ccccc2)cc(OCC)c1OCC,-1.95
16,CC1CCCN(Cc2c(O)ccc3c(=O)c(-c4ccc5c(c4)OCCO5)coc23)C1 (centres unmarked),-3.65
17,FC(F)(F)c1ccc(CN2CCN(c3cccc(Cl)c3)CC2)cc1,2.33
18,CCOC(=O)c1ccccc1NC(=O)c1cc(OC)cc(OC)c1,-4.59
19,Cc1cccc(C(=O)Nc2ccc(O)cc2)c1,-9.31
20,COc1cccc2c(O)c(NC(=O)NCc3ccc(OC(F)(F)F)cc3)cnc12,-3.08
21,CC1CN(C2C3CC4CC(C3)CC2C4)CC(C)O1 (centres unmarked),-4.14
22,CCc1cc(=O)oc2c(C)c3c(cc12)CN(Cc1ccccc1)CO3,-6.29
23,CC1(C)CC(=O)C2=C(C1)OC(N)=C(C#N)C2c1ccc(COc2ccccc2Br)o1 (centres unmarked),2.99
24,Cc1ccc(-c2csc(/C(C#N)=C/c3ccco3)n2)cc1,1.44
25,Cc1ccc(C)n1-c1ccccc1CO,-5.14

row,SMILES,% Inhibition @ 10 uM [%]
1,Cc1cc(C)c(C(=O)/C=C/c2cccs2)c(O)n1,0.605
2,CSc1ccc(S(=O)(=O)N(CC(=O)N2CCN(C)CC2)c2ccc(C)cc2)cc1,-1.64
3,CC(C)C(=O)Nc1cccc(C(=O)Nc2ccccc2C#N)c1,-1.74
4,Cc1sc2ncn(CC(=O)NCCCC(=O)N3CCN(c4ccccn4)CC3)c(=O)c2c1C,-6.13
5,Fc1ccccc1N1CCN(CCc2ccccc2)CC1,1.38
6,O=C(O)c1ccc(Cn2nc(N3CCCCC3)ccc2=O)o1,-2.83
7,COc1ccc(-c2nc3cc(C)ccn3c2NC(=O)c2ccccc2C)cc1,-1.29
8,O=C(NCC12CC3CC(C1)CC(CNC(=O)c1ccc(F)cc1)(C3)C2)c1ccc(F)cc1,2.7
9,Cc1nc2ccc(S(=O)(=O)NCC(=O)NCCCc3ccccc3)cc2s1,0.747
10,FC(F)(F)c1nnc2sc(COc3ccccc3)nn12,0.635
11,O=C(O)c1ccccc1C(=O)OCc1ccc(F)cc1F,-3.21
12,CC(C)(C)c1ccc(S(=O)(=O)c2ccccc2)cc1,3.32
13,CN(CCNC(=O)c1ccc(CS(=O)(=O)c2ccc(Br)cc2)o1)C1CCCCC1,14.3
14,O=C(Nc1nnc(/N=C/c2ccccc2)s1)c1cc(Cl)cc(Cl)c1,18.1
15,CCN(Cc1ccccc1)C(=O)CSc1nncn2c1cc1oc(C)cc12,-10.9
16,Cc1cc(C)c(S(=O)(=O)Nc2ccc(S(=O)(=O)N3CCC(C)CC3)cc2)c(C)c1,2.48
17,CCOC(=O)c1[nH]c2ccccc2c1N,40.4
18,O=C(NCCCn1ccnc1)c1nc(CS(=O)(=O)c2ccccc2)no1,2.77
19,CCOc1ccccc1C(=O)Nc1sc2c(c1C(=O)OC(C)C)CCCC2,6.91
20,CC1C(C#N)=C(N)OC2=C1C(=O)CC(c1ccccc1)C2 (centres unmarked),-2.69
21,O=C(Nc1ccc(Cl)cc1)c1cccc(C(=O)Nc2ccc(Cl)cc2)c1,0.526
22,Cc1ccc2ncc(C(=O)c3ccccc3)c(O)c2c1,2.08
23,C=CCOc1cccc(C2C(C(=O)c3ccc(C)cc3)=C(O)C(=O)N2Cc2cccnc2)c1 (centres unmarked),-0.0619
